According to PMC3938053:
Results are given in words; binding and its absence hold for the method and conditions named. For part of these data: Binding seen in cells or lysates may run through a third protein. Some binding calls cover weakened binding; strength is not graded here. For part of these data: Where a sequence is shown, tags or fusion partners need not be part of it.

Chains of the proteins cited; added tags and fusions are not shown. Lines headed by an entry give the natural chain unless they say otherwise; changes in a name come on top.
UniProt P84022: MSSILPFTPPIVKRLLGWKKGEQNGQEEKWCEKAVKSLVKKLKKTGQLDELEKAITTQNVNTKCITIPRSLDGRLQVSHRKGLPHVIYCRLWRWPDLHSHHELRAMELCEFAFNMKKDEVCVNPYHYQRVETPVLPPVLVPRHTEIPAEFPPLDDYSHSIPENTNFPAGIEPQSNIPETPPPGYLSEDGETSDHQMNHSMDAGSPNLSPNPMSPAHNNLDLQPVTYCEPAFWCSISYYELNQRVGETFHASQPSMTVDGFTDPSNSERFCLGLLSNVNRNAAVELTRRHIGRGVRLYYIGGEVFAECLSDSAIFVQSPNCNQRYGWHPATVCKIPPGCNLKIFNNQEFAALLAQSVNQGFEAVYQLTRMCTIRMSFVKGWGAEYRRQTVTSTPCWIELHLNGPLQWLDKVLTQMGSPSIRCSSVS
UniProt Q15797: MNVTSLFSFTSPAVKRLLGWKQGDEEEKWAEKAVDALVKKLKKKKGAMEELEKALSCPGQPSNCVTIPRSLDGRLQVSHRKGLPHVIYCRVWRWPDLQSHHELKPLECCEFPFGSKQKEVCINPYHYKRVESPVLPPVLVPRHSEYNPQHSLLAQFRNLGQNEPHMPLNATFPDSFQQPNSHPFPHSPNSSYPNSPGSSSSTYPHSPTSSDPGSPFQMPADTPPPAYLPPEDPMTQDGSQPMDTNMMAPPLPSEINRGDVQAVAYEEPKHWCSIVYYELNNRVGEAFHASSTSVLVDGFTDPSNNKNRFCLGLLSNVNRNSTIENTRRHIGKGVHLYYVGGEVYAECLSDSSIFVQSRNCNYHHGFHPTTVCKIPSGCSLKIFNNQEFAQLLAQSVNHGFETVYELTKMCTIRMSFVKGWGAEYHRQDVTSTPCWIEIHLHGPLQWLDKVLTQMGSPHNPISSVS
UniProt Q15796: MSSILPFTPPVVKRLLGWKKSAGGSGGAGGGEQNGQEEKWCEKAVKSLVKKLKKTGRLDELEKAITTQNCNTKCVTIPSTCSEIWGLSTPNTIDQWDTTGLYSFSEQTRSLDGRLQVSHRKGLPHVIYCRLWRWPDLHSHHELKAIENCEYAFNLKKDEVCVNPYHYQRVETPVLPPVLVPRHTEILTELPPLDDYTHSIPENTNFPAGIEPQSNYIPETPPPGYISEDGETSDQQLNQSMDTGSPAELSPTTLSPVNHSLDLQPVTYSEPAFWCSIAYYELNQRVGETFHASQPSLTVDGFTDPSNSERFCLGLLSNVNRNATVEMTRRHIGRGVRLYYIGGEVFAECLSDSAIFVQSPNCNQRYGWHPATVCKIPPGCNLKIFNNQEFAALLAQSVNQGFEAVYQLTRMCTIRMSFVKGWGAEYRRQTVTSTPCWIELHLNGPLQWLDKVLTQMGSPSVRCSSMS
UniProt O15198: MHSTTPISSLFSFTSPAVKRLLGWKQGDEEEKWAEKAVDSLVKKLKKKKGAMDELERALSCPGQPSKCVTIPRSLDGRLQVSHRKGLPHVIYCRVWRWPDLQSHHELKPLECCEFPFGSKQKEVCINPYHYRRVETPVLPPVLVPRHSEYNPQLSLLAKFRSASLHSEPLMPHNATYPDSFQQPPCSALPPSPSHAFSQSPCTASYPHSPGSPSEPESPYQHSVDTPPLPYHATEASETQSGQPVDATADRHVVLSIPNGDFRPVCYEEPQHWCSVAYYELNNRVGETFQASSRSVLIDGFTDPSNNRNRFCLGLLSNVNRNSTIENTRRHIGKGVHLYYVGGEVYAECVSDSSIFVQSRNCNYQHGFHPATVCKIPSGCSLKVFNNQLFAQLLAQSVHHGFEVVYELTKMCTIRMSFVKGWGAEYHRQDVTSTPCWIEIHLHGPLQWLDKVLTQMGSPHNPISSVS
UniProt Q13485: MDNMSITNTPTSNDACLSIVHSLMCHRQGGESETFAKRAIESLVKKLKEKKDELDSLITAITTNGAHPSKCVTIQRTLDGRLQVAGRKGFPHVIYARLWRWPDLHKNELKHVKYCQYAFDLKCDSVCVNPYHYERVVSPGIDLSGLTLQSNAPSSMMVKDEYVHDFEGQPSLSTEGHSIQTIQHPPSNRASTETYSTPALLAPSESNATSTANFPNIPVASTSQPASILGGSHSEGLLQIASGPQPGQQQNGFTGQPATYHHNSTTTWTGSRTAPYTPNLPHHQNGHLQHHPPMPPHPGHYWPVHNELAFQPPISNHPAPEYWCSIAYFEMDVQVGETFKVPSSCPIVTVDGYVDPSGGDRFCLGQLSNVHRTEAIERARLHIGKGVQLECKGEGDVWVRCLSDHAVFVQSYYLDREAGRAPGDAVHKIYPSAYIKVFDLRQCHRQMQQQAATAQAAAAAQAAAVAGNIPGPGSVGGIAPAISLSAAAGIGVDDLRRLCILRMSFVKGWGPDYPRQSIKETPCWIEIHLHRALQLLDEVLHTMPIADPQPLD
UniProt Q99717: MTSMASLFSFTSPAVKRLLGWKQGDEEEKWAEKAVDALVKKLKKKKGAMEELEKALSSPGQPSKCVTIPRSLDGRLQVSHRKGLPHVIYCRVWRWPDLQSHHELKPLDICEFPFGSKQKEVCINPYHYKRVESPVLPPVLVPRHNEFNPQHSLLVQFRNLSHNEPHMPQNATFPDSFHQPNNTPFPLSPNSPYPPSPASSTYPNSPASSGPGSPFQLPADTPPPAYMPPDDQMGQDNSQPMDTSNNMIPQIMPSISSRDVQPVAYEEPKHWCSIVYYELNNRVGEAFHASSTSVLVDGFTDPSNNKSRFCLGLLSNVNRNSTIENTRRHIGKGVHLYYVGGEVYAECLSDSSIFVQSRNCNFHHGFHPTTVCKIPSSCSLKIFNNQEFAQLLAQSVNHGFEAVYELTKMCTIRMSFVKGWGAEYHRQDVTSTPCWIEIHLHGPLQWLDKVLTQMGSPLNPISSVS

These substances were tested against T1, PAWS1, endogenous in HaCaT cells (human (endogenous in HaCaT)) (UniProt A6ND36) (assay: co-IP; endogenous proteins, HaCaT extracts; anti-PAWS1 IP, immunoblots for SMAD1 and SMAD2/3; cells untreated or treated with BMP-2 (25 ng/ml, 1 h) or TGF-β (50 pM, 1 h)).
T1 sequence: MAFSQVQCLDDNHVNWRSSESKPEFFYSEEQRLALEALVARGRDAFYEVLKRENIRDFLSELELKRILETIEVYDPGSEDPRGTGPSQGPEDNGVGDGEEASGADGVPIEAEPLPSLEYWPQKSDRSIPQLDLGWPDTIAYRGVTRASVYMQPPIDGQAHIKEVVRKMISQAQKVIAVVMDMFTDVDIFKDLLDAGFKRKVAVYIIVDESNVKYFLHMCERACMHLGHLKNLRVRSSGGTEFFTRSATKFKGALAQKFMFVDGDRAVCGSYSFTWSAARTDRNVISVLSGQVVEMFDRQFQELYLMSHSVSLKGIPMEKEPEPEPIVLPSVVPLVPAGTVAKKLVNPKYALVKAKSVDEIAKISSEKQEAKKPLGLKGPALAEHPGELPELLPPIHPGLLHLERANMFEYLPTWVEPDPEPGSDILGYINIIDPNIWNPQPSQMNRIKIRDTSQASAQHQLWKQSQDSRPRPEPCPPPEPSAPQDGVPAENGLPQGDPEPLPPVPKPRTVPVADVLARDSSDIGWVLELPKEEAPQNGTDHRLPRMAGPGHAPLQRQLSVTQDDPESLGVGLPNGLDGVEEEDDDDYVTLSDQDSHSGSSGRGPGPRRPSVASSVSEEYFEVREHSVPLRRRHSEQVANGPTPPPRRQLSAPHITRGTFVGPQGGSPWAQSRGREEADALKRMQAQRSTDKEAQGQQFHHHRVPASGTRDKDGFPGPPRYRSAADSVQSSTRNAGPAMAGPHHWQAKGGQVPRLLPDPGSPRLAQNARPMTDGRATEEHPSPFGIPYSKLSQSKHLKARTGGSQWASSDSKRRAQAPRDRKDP
In the case of “SMAD3, endogenous in HaCaT cells (from UniProt P84022 1-425)”, the binding is reported as “no binding”.
“SMAD1, endogenous in HaCaT cells (from UniProt Q15797 1-465)” was tested, and the binding was “binds”.
For “SMAD2, endogenous in HaCaT cells (from UniProt Q15796 1-467)”, the binding was “no binding”.

What follows are substances tested against T2, FLAG-PAWS1 (human) (UniProt A6ND36) (assay: co-IP; HEK293 cells co-transfected with FLAG-PAWS1 and HA- or GFP-tagged SMADs or HA-SMAD1 fragments; anti-FLAG IPs immunoblotted; washes with lysis buffer with 0.5 M NaCl).
T2 sequence: T1 sequence
For GFP-SMAD8 (from UniProt O15198 1-467), the binding was “binds”.
“HA-MH2 domain of SMAD1 (from UniProt Q15797 271-465) (domain or fragment)” was tested, and the binding was “binds”.
With HA-SMAD3 (from UniProt P84022 1-425) the binding was “no binding”.
HA-SMAD1 (from UniProt Q15797 1-465) was tested, and the binding was “binds”.
For GFP-SMAD4 (from UniProt Q13485 1-552), the binding was “no binding”.
In the case of GFP-SMAD5 (from UniProt Q99717 1-465), the binding is reported as “binds”.
For HA-SMAD2 (from UniProt Q15796 1-467), the binding was “no binding”.
For GFP-SMAD1 (from UniProt Q15797 1-465), the binding was “binds”.

These substances were tested against T1, PAWS1, endogenous in HaCaT cells (human (endogenous in HaCaT)) (assay: SEC; HaCaT extracts (1 mg) from cells untreated or treated with BMP-2 or TGF-β, Superose 6 10/300 GL, 50 mM Tris-HCl 7.5, 150 mM NaCl, 0.03% Brij-35; 32 fractions immunoblotted; SMAD1 IPs from fractions immunoblotted).
With “TGF-β-induced phospho-SMAD2, endogenous in HaCaT cells (from UniProt Q15796 1-467)” the binding was “no binding”.
For “SMAD1, endogenous in HaCaT cells (from UniProt Q15797 1-465)”, the binding was “binds”.
“TGF-β-induced phospho-SMAD3, endogenous in HaCaT cells (from UniProt P84022 1-425)” was tested, and the binding was “no binding”.
With “SMAD4, endogenous in HaCaT cells (from UniProt Q13485 1-552)” the binding was “no binding”.
